Experimental data taken from PubChem BioAssay AID488969 (Vanderbilt High Throughput Screening Facility, 2010).
The full ranking holds about 110,000 compounds; the median of “z-score” is about -0.1, and the highest 2% start at about 2. This is one part of the list.

The molecules below were run against Metabotropic glutamate receptor 8 (Rattus norvegicus) (UniProt P70579) (assay: rat mGluR8 modulators via GIRK flux, primary screen, cell-based, thallium flux, HTS (AID 488969)). Conditions: HEK293 rat mGluR8, GIRK (G protein-gated inwardly rectifying potassium channel) thallium flux, FluoZin2; at 10 µM; stronger effect = higher value; submaximal glutamate (EC20) added with thallium.
UniProt P70579, sequence (P70579 whole entry, looked up): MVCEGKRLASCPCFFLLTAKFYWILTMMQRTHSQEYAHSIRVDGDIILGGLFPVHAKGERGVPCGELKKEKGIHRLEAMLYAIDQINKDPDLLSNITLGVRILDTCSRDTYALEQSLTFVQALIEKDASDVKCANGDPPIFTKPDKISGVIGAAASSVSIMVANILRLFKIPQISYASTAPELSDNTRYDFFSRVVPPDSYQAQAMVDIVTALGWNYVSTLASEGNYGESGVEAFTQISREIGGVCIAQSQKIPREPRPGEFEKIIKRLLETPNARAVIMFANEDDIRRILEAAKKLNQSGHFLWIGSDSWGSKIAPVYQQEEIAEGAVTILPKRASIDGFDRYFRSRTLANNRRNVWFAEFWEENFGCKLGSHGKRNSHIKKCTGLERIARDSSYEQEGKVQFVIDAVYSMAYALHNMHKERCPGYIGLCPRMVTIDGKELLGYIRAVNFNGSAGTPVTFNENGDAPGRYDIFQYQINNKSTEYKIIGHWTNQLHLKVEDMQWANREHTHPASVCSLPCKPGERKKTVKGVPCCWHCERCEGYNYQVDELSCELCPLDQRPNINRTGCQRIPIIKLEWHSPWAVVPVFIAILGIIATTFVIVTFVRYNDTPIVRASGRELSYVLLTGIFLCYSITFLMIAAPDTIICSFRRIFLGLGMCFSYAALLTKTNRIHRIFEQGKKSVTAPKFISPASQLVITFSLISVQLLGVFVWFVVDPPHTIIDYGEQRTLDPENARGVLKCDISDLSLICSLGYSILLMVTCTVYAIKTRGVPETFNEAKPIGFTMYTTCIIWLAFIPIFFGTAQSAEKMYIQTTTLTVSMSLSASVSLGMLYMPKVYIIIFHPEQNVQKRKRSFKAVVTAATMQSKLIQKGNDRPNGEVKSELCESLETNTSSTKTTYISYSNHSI
`COC(=O)c1cc(C(=O)OCC(=O)N2c3ccccc3NC(=O)C2(C)C)cc([N+](=O)[O-])c1` showed a z-score of -0.914.
`NS(=O)(=O)c1cccc2cccnc12` was tested, and the z-score was -0.0814.
Molecule `CCOC(=O)C1=C(CC)OC(N)=C(C#N)C1c1cccs1` (stereo unspecified) has a z-score of -0.237.
In the case of `O=c1[nH]c(/C(Cl)=C/c2cccc(C(F)(F)F)c2)nc2cc(Cl)ccc12`, the z-score is reported as -0.0389.
In the case of `Cc1nc2nc(COc3ccccc3)[nH]n2c(=O)c1C`, the z-score is reported as -1.07.
Molecule `Cc1ccc(OCc2nnc(NC(=O)c3ccco3)s2)c(C)c1` has a z-score of -0.238.
`COc1ccc(CN2C(=O)NC3(CCCCC3)C2=O)cc1F` was tested, and the z-score was 0.259.
Molecule `COc1ccc(CCCC(=O)NC(C)c2ccccc2)cc1` (stereo unspecified) has a z-score of 0.483.
For `COc1ccc(Nc2cc(C(=O)NCCCN3CCOCC3)c3ccccc3n2)cc1OC`, the z-score was 0.172.
With `CCN(C1CCCCC1)S(=O)(=O)c1cn(C)c(=O)n(C)c1=O` the z-score was -0.233.
`COc1ccccc1NC(=O)C1=C(C)Nc2nnnn2C1c1cc(Br)ccc1OC` (stereo unspecified) was tested, and the z-score was -0.0888.
In the case of `CCN1CCN(c2nc3c(c(=O)n(C)c(=O)n3C)n2CCSc2nccc(C)n2)CC1`, the z-score is reported as 0.248.
`Cc1cc(/C=C2\SC(=S)N(Cc3ccco3)C2=O)c(C)n1-c1ccccc1` gave a z-score of 0.221.
`O=C(Nc1cc(-c2nn(CC(=O)N3CCCCC3)c(=O)c3ccccc23)ccc1N1CCOCC1)c1ccc(Cl)cc1` gave a z-score of -0.701.
Work on `O=C(N/N=C\c1cccc(Cl)c1)c1n[nH]c2c1CCCC2` yielded a z-score of -0.98.
Work on `C=CCn1c(Cc2cccs2)nnc1SCC(=O)NCc1ccco1` yielded a z-score of 0.148.
With `CCCCn1c(C)cc2cc(O)ccc21` the z-score was 1.16.
Work on `COc1ccc2c(c1OC)CN(C)CCc1cc3c(cc1C(O)C2)OCO3` (stereo unspecified) yielded a z-score of -0.367.
Molecule `COc1cccc(C2NC(C)(C(=O)O)C3C(=O)N(C(C)C)C(=O)C23)c1O` (stereo unspecified) has a z-score of 0.792.
Molecule `O=C(Nc1cccc(S(=O)(=O)N2CCOCC2)c1)c1cc2c(s1)CCC2` has a z-score of -1.2.
`O=c1nc(N2CCCCC2)nc2n1CCO2` gave a z-score of -0.398.
Work on `Cc1cccnc1Nc1nc(-c2ccccn2)cs1` yielded a z-score of 1.77.
`CS(=O)(=O)Nc1ccc(Cc2ccc(NS(C)(=O)=O)cc2)cc1` showed a z-score of -0.263.
`COc1cc(COc2ccc3c(C)c(Cc4ccccc4)c(=O)oc3c2)cc(OC)c1OC` was tested, and the z-score was -0.101.
`CCN1CCn2c1nc(N1CCCCC1)nc2=O` gave a z-score of 0.0609.
With `Cc1ccc(C(=O)NCCSc2snnc2C)cc1` the z-score was 0.171.
With `CN(c1cccc(NC(=O)Cc2ccccc2)c1)S(C)(=O)=O` the z-score was -0.0815.
`CCc1nc2oc3ccccc3c(=O)c2c(=O)n1CCOC` was tested, and the z-score was -0.0712.
`OCc1cn(-c2ccccc2)nc1-c1ccc2c(c1)OCCO2` showed a z-score of -0.478.
In the case of `Cc1ccc(C)c(NC(=S)NNC(=O)c2sccc2C)c1`, the z-score is reported as 1.53.
`CCCn1nc(C(=O)Oc2ccc3c(C)cc(=O)oc3c2)c2ccccc2c1=O` was tested, and the z-score was -0.836.
For `Cc1cccc(-c2nc(C#N)c(NC3CCCCC3)o2)c1`, the z-score was 0.339.
With `CSc1ccccc1NC(=O)Nc1cccc(Cl)c1` the z-score was 0.076.
Molecule `COc1ccc(O)c(/C=N/c2sc(C)c(C)c2C#N)c1` has a z-score of 0.454.
In the case of `S=C(N/N=C1\C2CN3CCN(C2)CC1(c1ccccc1)C3)Nc1ccccc1`, the z-score is reported as 0.425.
`Cc1ccc2cc(CN(CC3CCCO3)C(=S)Nc3ccccc3)c(=O)[nH]c2c1C` (stereo unspecified) showed a z-score of -0.0337.
`COC(=O)c1c(C)oc2ccc(N(C(=O)Oc3ccccc3)S(=O)(=O)c3ccc(Cl)c([N+](=O)[O-])c3)cc12` gave a z-score of 0.134.
Molecule `COc1ccc(-n2c(=O)cc(N3CCN(Cc4ccccc4)CC3)[nH]c2=O)cc1` has a z-score of 0.394.
`COC(=O)c1cc(-c2ccccc2)sc1NC(=O)CN1C(=O)c2ccccc2C1=O` showed a z-score of -0.134.
With `CN1CCN(CC(=O)Nc2ccccc2[N+](=O)[O-])CC1` the z-score was -0.321.
`COc1cccc(OCC(O)CN(CCO)Cc2ccccc2)c1` (stereo unspecified) gave a z-score of 1.71.
Molecule `O=C(Cc1ccccc1)Nc1nc2ccccc2s1` has a z-score of 0.548.
Molecule `CN1CCN(CC(=O)N/N=C/c2ccc(F)c(F)c2)CC1` has a z-score of -0.0626.
`CCCCN(CC)C(=O)CSc1cc(=O)n(C)c2ccccc12` was tested, and the z-score was 0.477.
`Cn1ncc([N+](=O)[O-])c1C(=O)Nc1nccs1` was tested, and the z-score was 0.0986.
Work on `O=c1c2c3c(sc2nc2n1CCCC2)CCCCC3` yielded a z-score of -0.277.
With `CCCCOCCCNc1ncnc2c1[nH]c1ccccc12` the z-score was -0.519.
In the case of `CCc1cccc2c(C=C(C#N)C#N)cn(CC(=O)N3CCCCCC3)c12`, the z-score is reported as 0.134.
With `Cc1c(CCO)c(=O)n(C)n1C(=O)c1ccc(Cl)cc1` the z-score was -0.195.
`O=C(/C=C/c1ccc(Cl)cc1Cl)NCCSc1ccccc1` showed a z-score of 0.133.
`CC(C)N(Cc1nc(-c2ccccc2)no1)C(=O)CSc1ccccc1` showed a z-score of -2.54.
`CN(Cc1ccccc1)c1ccc(S(=O)(=O)N2CCOCC2)cn1` was tested, and the z-score was 0.115.
For `Fc1ccc(CSc2ccc3nnc(-c4cccs4)n3n2)cc1`, the z-score was -0.335.
`OCC(CO)(CO)NCc1ccc(-c2ccccc2)cc1` was tested, and the z-score was 0.599.
With `CCCC(=O)Nc1ccc(C(=O)Nc2cc(C(F)(F)F)ccc2Cl)cc1` the z-score was -0.386.
`CN(C)CCNc1nc(-c2ccco2)c2c(c1C#N)CC(C)(C)OC2` was tested, and the z-score was 0.397.
In the case of `COc1ccc(OC)c(/C=N/NC(=O)c2ccc(Cn3cc([N+](=O)[O-])cn3)o2)c1`, the z-score is reported as 0.103.
`CCOC(=O)C1CCCN(S(=O)(=O)c2cccc3cccnc23)C1` (stereo unspecified) gave a z-score of -0.188.
For `CCCCCCC(=O)N/N=C/c1ccco1`, the z-score was -0.0628.
`CCOCC(=O)Nc1ccc(F)c(F)c1` was tested, and the z-score was 0.128.
Work on `CCOc1ccc2nc(NC(=O)CN3CCN(c4ccccn4)CC3)sc2c1` yielded a z-score of 0.215.
For `O=C(COC(=O)c1cc(=O)[nH]c(=O)[nH]1)NCc1ccccc1`, the z-score was 0.00697.
`CCc1ccc2[nH]c(=O)c(CN(CCCO)C(=O)NCc3ccccc3)cc2c1` gave a z-score of 0.00958.
`O=C(NCc1cn2ccccc2n1)c1ccco1` showed a z-score of 0.209.
Work on `CC(C)OC(=O)c1cccc(C(=O)Oc2ccc(Br)cc2)n1` yielded a z-score of -0.331.
For `COC(=O)c1cc(Br)c(=O)n(-c2cccc(F)c2)c1`, the z-score was -0.0201.
Molecule `Cc1ccc(S(=O)(=O)/N=C(/NC(=S)Nc2cccc(C)c2)c2ccccc2)cc1` has a z-score of 0.579.
For `Cc1ccc(SCc2nc(-c3ccncc3)no2)cc1`, the z-score was -0.289.
`Cc1nn(C(=O)N2CCOCC2)c(C)c1C` gave a z-score of 0.408.
In the case of `Cc1ccc(OCCOc2cccc(Br)c2)c([N+](=O)[O-])n1`, the z-score is reported as -0.456.
`CC1(C)Oc2ccc(C(=O)NC3CCCC3)cc2N(CC(=O)NC2CCCC2)C1=O` showed a z-score of -0.495.
With `COc1ccc(C2CC2/C(C)=N/OC(=O)c2cccs2)cc1` (stereo unspecified) the z-score was -1.24.
`CCOC(=O)N1CCN(c2c(NCc3ccc(N(C)C)cc3)c(=O)c2=O)CC1` gave a z-score of -0.142.
`Cc1ccccc1NC(=O)C(NS(=O)(=O)c1ccc2c(c1)c(=O)n(C)c(=O)n2C)c1ccccc1` (stereo unspecified) gave a z-score of -0.00301.
With `CCOc1ccccc1NC(=O)COC(=O)C(CC(C)C)N1C(=O)C2CC=CCC2C1=O` (stereo unspecified) the z-score was -0.869.
`O=C(NC(=S)NCCN1CCOCC1)c1ccccc1Br` showed a z-score of 0.00751.
With `O=C(Nc1ccc2nc(-c3ccccc3)oc2c1)c1ccco1` the z-score was -0.126.
`COC(=O)CC(NC(=O)c1ccc(C)cc1)c1ccc2c(c1)OCO2` (stereo unspecified) was tested, and the z-score was 0.306.
`Cc1ccc(NC(=O)OCc2cn(-c3ccc(Cl)cc3)nn2)cc1` gave a z-score of -0.000325.
For `COc1ccc(C2=NN(C(=O)c3cccc([N+](=O)[O-])c3)C(c3cccc([N+](=O)[O-])c3)C2)cc1` (stereo unspecified), the z-score was 0.0474.
`CC1(C)OC(=O)N(Cc2ccco2)C1(C)O` (stereo unspecified) was tested, and the z-score was 0.594.
Work on `Cc1nnsc1C(=O)NC(C)C12CC3CC(CC(C3)C1)C2` (stereo unspecified) yielded a z-score of -0.0504.
In the case of `O=C(C1=C(O)C(=O)N(Cc2ccccc2)C1c1ccco1)c1ccco1` (stereo unspecified), the z-score is reported as -1.5.
Molecule `COc1cccc(N2C(=O)CC(N3CCC(c4nc5ccccc5[nH]4)CC3)C2=O)c1` (stereo unspecified) has a z-score of 0.0245.
Work on `CCN(CC)S(=O)(=O)c1ccc(-c2nnc(SCC(=O)c3ccc(OC)cc3)o2)cc1` yielded a z-score of 0.208.
`CCCN1C/C(=C/c2cccc([N+](=O)[O-])c2)C(=O)/C(=C/c2cccc([N+](=O)[O-])c2)C1` gave a z-score of -0.883.
For `NC(=S)n1[nH]c(-c2ccc([N+](=O)[O-])cc2)c(N=Nc2ccc(O)cc2)c1=O`, the z-score was 0.0796.
With `Cc1ccc(COn2c(-c3ccc(Cl)cc3Cl)nc3ncccc32)cc1` the z-score was -1.37.
In the case of `CCCCN(C(=O)CC(c1ccccc1)c1ccccc1)c1c(N)n(CCC)c(=O)[nH]c1=O`, the z-score is reported as -0.288.
With `COCCn1c(=O)[nH]c(=O)c2c(C(F)(F)F)cc(-c3cccs3)nc21` the z-score was -0.821.
For `Cc1cc2cc(OCC(=O)O)ccc2n1C`, the z-score was 0.494.
`CC(=O)NC1CC2CCCC(C1)N2S(=O)(=O)c1ccccc1` (stereo unspecified) was tested, and the z-score was -0.0145.
Work on `CC1CN(C(c2cccs2)c2sc3ncnn3c2O)CC(C)O1` (stereo unspecified) yielded a z-score of 0.26.
`Cc1cc(NC(=O)c2ccc(C)s2)n(-c2ccccc2)n1` was tested, and the z-score was 0.239.
Work on `Cc1ccc(S(=O)(=O)N/N=C\c2cc3c(cc2[N+](=O)[O-])OCO3)cc1` yielded a z-score of 0.0514.
`O=C(O)c1ccc2c(c1)N(Cc1ccccc1F)C(=O)c1ccccc1S2=O` (stereo unspecified) showed a z-score of 0.0828.
`CCCCCOc1ccc(NC(=O)C(=O)NCCCn2ccnc2)cc1` was tested, and the z-score was -0.188.
Molecule `O=C(Nc1ccccc1C(=O)Nc1ccc2c(c1)OCO2)c1ccco1` has a z-score of -0.558.
`COc1ccc(CNC(=O)CSc2n[nH]c(C)c2[N+](=O)[O-])cc1` showed a z-score of -0.119.
`CC1=CC(=NOC(=O)/C=C/c2ccccc2)C=C(C)C1=O` showed a z-score of -0.325.
Molecule `O=C(NC(Nc1nc2ccc([N+](=O)[O-])cc2s1)(C(F)(F)F)C(F)(F)F)c1cccnc1` has a z-score of 0.978.
`COc1ccccc1C(=O)Nc1ccc2c(c1)nc1n2CCSC1` gave a z-score of -0.665.
For `O=C(c1ccncc1)c1ccc(NS(=O)(=O)c2ccc(Br)s2)cc1`, the z-score was -0.141.
Molecule `OCCNCCCCOc1ccc(F)cc1` has a z-score of 0.17.
`Cc1ccc(O)c(NC(=O)c2ccco2)c1` showed a z-score of -0.223.
Molecule `CCOc1ccc2cc(C#N)c(SCC(=O)N3CCC(C)CC3)nc2c1` has a z-score of -0.375.
Molecule `C/C(=N\NC(=S)Nc1ccc(F)cc1)C1CC1` has a z-score of -0.155.
In the case of `Cc1ccc(NC(=O)C2CCN(S(=O)(=O)c3cccs3)CC2)cc1C`, the z-score is reported as 0.256.
For `Cc1ccc(S(=O)(=O)/N=S(\C)CC2CC2(Cl)Cl)cc1` (stereo unspecified), the z-score was -0.129.
Molecule `C=C(C)C1Cc2c(C)nn(-c3nc(C)cc(C)n3)c2C1` (stereo unspecified) has a z-score of -0.968.
Work on `CCCc1nc2sc(C(=O)OCC)c(N)c2c2c1COC(C)(C)C2` yielded a z-score of -0.0164.
